Laboratory results reported in PubChem BioAssay AID1347165 (National Center for Advancing Translational Sciences (NCATS), 2019).
Where “and” joins values, the source holds several entries; their conditions need not be identical. Equal entries are not always repeated. Screen size: about 220,000 compounds; about 5,700 (2.6%) were called active. The inconclusive results got no clear call from the source; some entries with a clear call stand among them for comparison. Calls follow the shape of the dose curve; as a rule, active = well fitted inhibition curve with a large enough effect; inconclusive = small, poorly fitted or top-dose-only effect; inactive = no such curve, though single readings can be large or run the other way. Potencies beside an inconclusive call are fits to weak or partial responses and may not hold up.

These compounds were tested against Lysine-specific demethylase 5B (Homo sapiens) (UniProt Q9UGL1) (assay: Primary screen for KDM5B Histone Demethylases FDH-coupled qHTS). Details: FDH-coupled NADH fluorescence (FDH is formaldehyde dehydrogenase); activity change, negative = inhibition: at 57.7 µM (top of the series) unless noted.
Summary of the method: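 Measured: NADH fluorescence change, 30 min, RT. System: KDM5BΔAP 200 nM final, H3K4me3 peptide, α-KG, Fe(II), ascorbate, NAD⁺ plus FDH, pH 7.5 HEPES. Compounds: titrated, 10 min pre-incubation with enzyme.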
Also: nearly all actives have a fitted effect of over 70% in size.
For activity change, negative = inhibition in this document: 0% is about no effect.
Potency is read from the fitted curve at half-maximal effect; tags tell the direction and shape of the fitted curve.

UniProt Q9UGL1, sequence (Q9UGL1 whole entry, looked up): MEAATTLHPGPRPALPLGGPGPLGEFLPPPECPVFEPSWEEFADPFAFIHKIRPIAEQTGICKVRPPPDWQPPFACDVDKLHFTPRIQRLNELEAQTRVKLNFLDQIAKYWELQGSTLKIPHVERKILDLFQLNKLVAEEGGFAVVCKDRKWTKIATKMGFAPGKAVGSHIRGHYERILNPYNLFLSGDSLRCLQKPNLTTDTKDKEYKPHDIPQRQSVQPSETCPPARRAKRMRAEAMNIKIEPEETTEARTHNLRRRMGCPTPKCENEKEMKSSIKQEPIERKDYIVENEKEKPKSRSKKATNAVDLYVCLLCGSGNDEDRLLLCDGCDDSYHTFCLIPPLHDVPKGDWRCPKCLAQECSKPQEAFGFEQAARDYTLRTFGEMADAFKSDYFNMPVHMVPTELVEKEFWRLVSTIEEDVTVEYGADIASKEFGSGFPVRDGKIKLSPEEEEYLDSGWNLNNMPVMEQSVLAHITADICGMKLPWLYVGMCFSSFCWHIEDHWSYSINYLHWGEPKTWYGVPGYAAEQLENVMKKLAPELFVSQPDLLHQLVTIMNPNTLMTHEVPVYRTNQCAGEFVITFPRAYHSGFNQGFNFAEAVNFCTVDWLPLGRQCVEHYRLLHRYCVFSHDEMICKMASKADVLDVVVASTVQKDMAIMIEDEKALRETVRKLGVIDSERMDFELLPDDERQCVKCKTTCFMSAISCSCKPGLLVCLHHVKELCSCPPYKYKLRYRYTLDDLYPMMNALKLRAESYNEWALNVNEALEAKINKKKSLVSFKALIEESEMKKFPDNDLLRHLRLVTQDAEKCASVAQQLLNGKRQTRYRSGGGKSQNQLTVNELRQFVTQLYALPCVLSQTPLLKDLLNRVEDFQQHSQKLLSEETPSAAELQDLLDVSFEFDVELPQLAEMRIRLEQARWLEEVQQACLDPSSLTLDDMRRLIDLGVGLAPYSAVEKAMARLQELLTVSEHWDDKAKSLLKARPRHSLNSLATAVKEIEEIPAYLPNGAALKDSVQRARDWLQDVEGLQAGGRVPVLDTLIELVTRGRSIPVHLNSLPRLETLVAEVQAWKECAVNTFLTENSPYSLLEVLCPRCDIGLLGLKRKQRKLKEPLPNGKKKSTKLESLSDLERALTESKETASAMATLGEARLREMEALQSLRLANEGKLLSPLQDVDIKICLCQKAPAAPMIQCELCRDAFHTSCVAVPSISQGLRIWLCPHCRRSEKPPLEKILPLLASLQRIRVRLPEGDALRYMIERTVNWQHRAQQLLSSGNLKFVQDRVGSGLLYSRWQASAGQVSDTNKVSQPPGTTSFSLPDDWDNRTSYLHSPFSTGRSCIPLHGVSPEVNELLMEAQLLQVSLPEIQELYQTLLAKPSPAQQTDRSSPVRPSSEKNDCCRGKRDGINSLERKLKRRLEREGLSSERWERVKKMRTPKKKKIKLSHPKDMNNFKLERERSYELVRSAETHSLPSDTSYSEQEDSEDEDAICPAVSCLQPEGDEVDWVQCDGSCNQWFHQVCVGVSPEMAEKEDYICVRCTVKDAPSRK

Row | SMILES | activity change, negative = inhibition | Potency
1 | Cc1ccccc1Cc1sc(N)nc1C | inactive: 9.53% | –
2 | Cc1[nH]c2ccc(F)cc2c1CC(=O)NC1CCCCC1 | inactive: 10.2% | –
3 | CCC(=O)N1CCc2c(sc3ncnc(N)c23)C1 | – | active: 28.2 µM
4 | CCn1c(=O)c2cc(C(=O)NCCc3ccc(Cl)cc3)sc2c2ccccc21 | – | inconclusive: 15.8 µM [inhibitor, partial curve, poor fit]
5 | Cc1noc(C)c1-c1cc(-c2ccc([S+](C)(=O)[O-])cc2)cn2cncc12 | – | active: 31.6 µM
6 | Cc1ccc(C(=O)Nc2ccc3oc(=O)ccc3c2)c(Cl)c1 | – | inconclusive: 39.8 µM [inhibitor, single point]
7 | CCc1ccccc1NC(=O)CN1CCN(Cc2csc(-c3ccc(Cl)cc3)n2)CC1 | inactive: -0.983% | –
8 | CCCNc1c(NC(=O)Nc2ccc(C)c(Cl)c2)c(=O)oc2ccccc12 | inactive: -5.16% | –
9 | Cc1ccc(F)c(NC(=O)[C@@H]2COCC(=O)N2Cc2ccc(F)cc2)c1 | – | active: 39.8 µM
10 | COc1cccc([C@@H]2CN(C(=O)c3n[nH]c4c3CCCC4)C[C@H]2C(=O)O)c1 | inactive: -19.5% | –
11 | COc1ccc(CNC(=O)c2ccc(-c3nc(CSc4ccc(C)cc4)c(C)o3)cc2)cc1OC | inactive: -0.253% | –
12 | CC1CCN(S(=O)(=O)c2ccc3c(c2)CCN3C(=O)Nc2ccc(F)cc2)CC1 | inactive: 7.76% | –
13 | O=C(NCc1ccc(F)cc1)c1cc(Sc2ccc(F)cc2F)nc2ccccc12 | – | inconclusive: 22.4 µM [inhibitor, single point]
14 | CCOC(=O)C1CCN(C(=O)Cn2c(-c3cccs3)cc3cc(Cl)ccc32)CC1 | – | inconclusive: 35.5 µM [inhibitor, partial curve, poor fit]
15 | O=C(NCc1ccc(Cl)cc1)c1ccc(NC(=O)N2CC3CCCN3c3ccccc32)cc1 (stereo not drawn) | – | inconclusive: 17.8 µM [inhibitor, partial curve, poor fit]
16 | Cc1cc(C)n2ncc(-c3noc(C(=O)NCC(O)c4ccccc4)n3)c2n1 (stereo not drawn) | inactive: -28.1% | –
17 | O=C(Nc1ccc(Oc2ccccc2)cc1)O[C@@H]1CO[C@H]2[C@@H]1OC[C@@H]2n1nnnc1SC1CCCC1 | inactive: 9.41% | –
18 | COc1ccc(N2CCN(CC(O)COc3ccc(C)cc3C)CC2)cc1 (stereo not drawn) | – | inconclusive: 35.5 µM [inhibitor, single point]
19 | Cc1cc(C)c(OCC(=O)Nc2ccccc2N2CCCC2=O)c(C)c1 | inactive: 8.87% | –
20 | CC(C)(C)C(=O)NC1(C(F)(F)F)NC(=O)N(c2ccc(F)cc2)C1=O (stereo not drawn) | inactive: -14.8% | –
21 | CN1Cc2c(cc(N3CCOCC3)nc2-c2cccc(F)c2)C1=O | – | inconclusive: 39.8 µM [inhibitor, partial curve, poor fit]
22 | Cc1ccc(S(=O)(=O)C2(C(=O)Nc3ccc(C)c(Cl)c3)CC2)cc1 | – | inconclusive: 0.891 µM [inhibitor, full curve, poor fit]

Row | SMILES | activity change, negative = inhibition | Potency
23 | CCC(=O)N1c2ccccc2CC1C(=O)NCCc1ccccc1Cl (stereo not drawn) | inactive: 3.03% | –
24 | COc1ccc(Br)cc1CN1CCCC(C(=O)N2CCCCC2)C1 (stereo not drawn) | – | inconclusive: 31.6 µM [inhibitor, partial curve, poor fit]
25 | CN(C)c1ccc(-c2nc(C3CC(=O)N(c4ccc(F)cc4)C3)no2)cc1 (stereo not drawn) | – | active: 31.6 µM
26 | CCCn1c(N2CCN(Cc3c(F)cccc3Cl)CC2)nc2c1c(=O)[nH]c(=O)n2C | inactive: -2.24% | –
27 | N#C/C(=C/c1cccc(O)c1)c1nc2ccccc2[nH]1 | – | inconclusive: 12.6 µM [inhibitor, partial curve, poor fit]
28 | Cn1nc(C(=O)NCc2cccc(Cl)c2)c2c1-c1ccccc1SC2 | – | inconclusive: 14.1 µM [inhibitor, partial curve, poor fit]
29 | CCOC(=O)N1CCN(c2nc(-c3cccs3)nc3ccccc23)CC1 | – | inconclusive: 35.5 µM [inhibitor, single point]
30 | Cc1ccc(C(=O)N[C@@H]2CN(C)C[C@H]2CN(C)C)s1 | – | inconclusive: 15.8 µM [inhibitor, partial curve, poor fit]
31 | CC(=O)N1CCN(C(=O)c2cc(-c3cccs3)nc3ccccc23)CC1 | – | inconclusive: 22.4 µM [inhibitor, partial curve, poor fit]
32 | O=C1CCN(C(=O)CCC2CCCC2)CCCC(c2nc(-c3cccnc3)no2)CCN1 (stereo not drawn) | inactive: -14.5% | –
33 | Cc1ccc(C#N)c(N2CC[C@@H](c3ccc4c(c3)OCO4)[C@H](O)C2)n1 | – | active: 28.2 µM
34 | COc1ccc(-c2cn3cccnc3n2)cc1NC(=O)COc1ccccc1 | – | inconclusive: 25.1 µM [inhibitor, partial curve, poor fit]
35 | Cc1nc(/C=C/C(=O)N2CCN(c3cccc(C(F)(F)F)c3)CC2)cs1 | inactive: -22.3% | –
36 | CCOc1ccccc1CN1CCC2(CCN(C(=O)Cc3ccccn3)CC2)Oc2ccccc21 | – | inconclusive: 28.2 µM [inhibitor, partial curve] and inconclusive: 14.1 µM [inhibitor, partial curve]
37 | Cc1ccc(OCc2nc(C3CN(C(=O)c4n[nH]c5ccccc45)C3)no2)cc1 | – | inconclusive: 22.4 µM [inhibitor, partial curve, poor fit]
38 | COc1ccc(CC(=O)N2CCc3nc4cc[nH]n4c(=O)c3C2)c(Cl)c1 | – | inconclusive: 31.6 µM [inhibitor, partial curve, poor fit]
39 | O=S(=O)(NCc1ccccc1Cl)c1ccc(-c2cnc(C3CC3)o2)cc1 | – | inconclusive: 14.1 µM [inhibitor, partial curve, poor fit] and inconclusive: 31.6 µM [inhibitor, partial curve, poor fit]
40 | O=C(Nc1ccccc1)c1cc2ccc(O)cc2oc1=O | – | inconclusive: 2 µM [inhibitor, full curve, poor fit]
41 | CCn1ncc(C(=O)N2CCC3(CC2)CN(Cc2ccccc2)CC3CO)c1C (stereo not drawn) | – | inconclusive: 17.8 µM [inhibitor, partial curve]
42 | C=CCOC(=O)C1=C(C)N=C2SC=C(CC(=O)NC3CC3)N2C1c1cccc(OC)c1OC (stereo not drawn) | – | inconclusive: 35.5 µM [inhibitor, partial curve, poor fit]
43 | Cc1cccn2c(CC(=O)N3CCn4nc(CO)cc4C3)cnc12 | – | inconclusive: 11.2 µM [inhibitor, partial curve, poor fit]
